Screen size: about 150,000 compounds; about 540 (0.36%) showed an effect of 50% or more. The list shows a part of the results.
tested on: Plasmodium falciparum; experiment: Primary screen in NF54 nanoGlo assay, in single point, at 2uM, 72h; a lower Z score goes with more inhibition; format: functional, Erythrocyte; conditions: timepoint 72 hour

SMILES	% Inhibition	Z score
Cc1cccc([C@@H](NC(=O)N(C)CC2(O)CCOCC2)C(C)(C)C)c1	-15%	1.91
Cc1sc(-c2ccn[nH]2)cc1NC(=O)c1ccc2ccccc2n1	-11%	1.14
O=C([C@@H]1COc2ccccc2C1)N1CCC(COc2cc(C3CC3)ncn2)CC1	-3%	0.31
COC(=O)C1CCC1C(=O)N1CC(OC)C1 (centres undefined)	-3%	0.54
O=C(Nc1cccc2c1OCCO2)N1CCCCO1	2%	-0.28
CCCNC(=O)C(=O)NCc1ccc(C)cc1	-8%	1.09
O=C(c1cccnc1)N1CC[C@H](OCC2CC2)C1	2%	-0.25
Cc1nc2ccc(NC(=O)N3C[C@H](OC(C)C)[C@@H](O)C3)cc2[nH]1	1%	-0.18
CC(=O)N1CC[C@H](OC(=O)c2cc(C)c(F)c(C)c2)C1	-14%	1.51
CCN1CCN(C2(C(=O)N(CC)CC)Cc3ccccc3C2)CC1	-18%	2.63
CCn1ccnc(NC2CCCCCC2)c1=O	-5%	0.75
CC(C)(C)[C@@H](N)COc1ccccc1F	-11%	1.12
CC[C@@H](C(=O)N1CCCN(c2nc(CN3CCN(c4ccccc4Cl)CC3)cc(=O)[nH]2)CC1)c1ccccc1	-6%	0.86
COC(=O)C[C@H](C)NC(=O)C1(C#N)CCCC1	-14%	2.24
COc1ccc(CN2CCNC(=O)[C@@H]2CC(=O)N2CCCO2)c(F)c1	-15%	1.56
CCn1cnc2c1CN(S(=O)(=O)c1ccc(C#N)cc1)CC2	-9%	1.04
Cc1ccc(CN(C[C@H](O)COCc2ccccc2)C(C)C)cc1	-1%	0.09
O=C1[C@H](c2ccccc2)CC2(CCN(Cc3ccccn3)CC2)CN1C1CC1	11%	-1.84
COc1cc(C)ccc1CN1CCc2[nH]cnc2[C@@H]1c1cnc(C)n1C	8%	-1.06
Cc1nnsc1C(=O)NC1CCC2CN(Cc3ccccc3)CC21 (centres undefined)	-10%	1.94
CCCOC(=O)N1CCC2(CC1)C[C@@H](c1ccccc1)C(=O)N(C)C2	2%	-0.27

SMILES	% Inhibition	Z score
O=C(NCC1Cc2ccccc21)NOC1CCCCO1 (centres undefined)	-11%	1.53
Fc1cccc(F)c1CN(Cc1cncnc1)C1CC1	2%	-0.21
O=C(NC[C@H](O)c1ccc2c(c1)OCCO2)C(=O)Nc1ccccc1C(F)(F)F	-15%	1.87
O=C(C1CCC1)N1CCc2sc(S(=O)(=O)NCc3ccc(F)cc3Cl)cc2C1	-5%	0.96
O=C(NCCc1cnn(-c2ccccc2)c1)c1ccc(-n2cnnc2)nc1	-17%	2.33
CC1CN(C(=O)CC2NC(=O)N(c3ccc(F)cc3)C2=O)C(C)CO1 (centres undefined)	29%	-3.95
O=C(c1cccc(S(=O)(=O)N2CCCCC2)c1)N1CCn2ncnc2C1	-6%	0.75
CCC(CC)S(=O)(=O)Cc1nnc(-c2ccccc2)o1	-3%	0.33
CCN(C(=O)c1ccc(S(=O)(=O)N2CCOCC2)cc1)c1ccccc1	-12%	2.01
O=C(NCC1CCN(C(=O)c2ccco2)CC1)C1CCC1	-20%	2.05
COc1ccccc1OCc1n[nH]c(-c2cc(C(C)(C)C)nc(=O)[nH]2)n1	-16%	1.78
Cc1ccc(-c2cc(=O)n(CC(=O)Nc3ccc(C)c(Cl)c3)[nH]2)cc1	-12%	1.61
CC[C@H](NC(=O)c1ccc(N)nc1)c1ncccc1C	0%	0.05
CCc1nn(C)cc1NC(=O)NC[C@H]1C[C@@H]1C(F)(F)F	10%	-1.54
Cc1cccc(C)c1NC(=O)c1cccc(NC(=O)CCc2cc(O)no2)c1	1%	-0.08
CCc1ccsc1C(=O)N(C)Cc1ncnn1C	1%	-0.09
CCN1CCN(c2cccc(NC(=O)c3ccc4[nH]c5ccccc5c(=O)c4c3)c2)CC1	92%	-9.25
CCC(CC)c1nnc(NC(C)=O)s1	-4%	0.79
CC(=O)Nc1ccnn1C1CCCCC1	3%	-0.32
CC(C)[C@H](NC(=O)N1CCN2C(CNS2(=O)=O)C1)C(F)(F)F (some centres undefined)	-9%	1.71
CCc1nc2ncc(-c3ccnc(N4CCC(C)CC4)n3)c(C)n2n1	-7%	0.96

From ChEMBL document CHEMBL4888484, “Replenishing the malaria drug discovery pipeline: Screening and hit evaluation of the MMV Hit Generation Library 1 (HGL1) against asexual blood stage Plasmodium falciparum ,using a nano luciferase reporter read-out” (2022)
